Experimental data as given in patent publication US5322854A, “Reveromycin A, method for preparing the same, and antitumor agent and antifungal agent comprising the same” (Rikagaku Kenkyusho, priority 1990, dated 1994).

Columns and labels:
[1] = system: Rat Kidney Cell (NRK) transformed with temperature sensitive oncogene, src^ts; assay: Effect on spherical (transformed) src^ts-NRK cells at 32° C.; conditions: read-out: inhibitory ratio
Procedure: Effect on Rat Kidney Cell (NRK) Transformed with Temperature Sensitive Oncogene, src^ts
When src^ts -NRK cells are cultured at 32° C., spherical transformant cells can be grown. On the other hand, when they are cultured at 39° C., the spherical cells will disappear and only flat adhesive cells can be grown. Reveromycin A was added to the cultured cells at 32° C. and the cells were observed microscopically to count the number of spherical cells. The effectiveness was calculated by the equation set out below. [formula]

[2] = system: mouse epithelial cells stimulated by Epidermal Growth Factor, EGF; assay: Inhibition of DNA synthesis in mouse epithelial cells stimulated by EGF (3H-thymidine); conditions: Epithelial cell, 17 h, read-out: inhibitory ratio
Procedure: Experiments of the Inhibition of DNA Synthesis in Mouse Epithelial Cells Stimulated by Epidermal Growth Factor, EGF
EGF (5 ng/ml) and Reveromycin A were added to a culture of mouse epithelial cells in resting stage, and after 17 hours, ^3 H-labeled thymidine (1 μ Ci/ml) was added to the medium. The radioactivity of the acid insoluble fraction of the cells, which were labeled for 5 hours, was measured by a liquid scintillation counter to determine the amount of DNA synthesis. The ratio of inhibition was calculated by the equation set out below. [formula]

Work on `CCCC[C@@]1(OC(=O)CCC(=O)O)CC[C@]2(CC[C@H](C)[C@@H](C/C=C(C)/C=C/[C@H](O)[C@@H](C)/C=C/C(=O)O)O2)O[C@H]1/C=C/C(C)=C/C(=O)O` [Reveromycin A] yielded an inhibition at 0.5 µg/mL [1] of 45%, an inhibition at 1.7 µg/mL [1] of 60% and an inhibition at 5 µg/mL [1] of 95%. It also gave an inhibition at 17 µg/mL [1] of 95%, an inhibition at 50 µg/mL [1] of 95% and an inhibition at 0.5 µg/mL [2] of 15%. For the same molecule, the inhibition at 1.7 µg/mL [2] was 48%, the inhibition at 5 µg/mL [2] was 88% and the inhibition at 17 µg/mL [2] was 90%. The inhibition at 50 µg/mL [2] was 99%.
